Assay results taken from the supplement of paper PMC10670038.
Structures can show the parent of a compound that is named as a salt. ± gives the standard deviation of the averaged measurements. Whole data set: some 2,000 compounds, median “relative cell viability vs DMSO, compound + 0.2 uM CuET” near 1, cut for the lowest 2% near 0.25. The list shows a part of the results.

What follows are molecules tested on TE10 (assay: relative cell viability vs DMSO, compound + 0.2 uM CuET (fraction); TE10 is an esophageal squamous carcinoma line; higher = less cytotoxic). Conditions: 2 µM; co-treatment: CuET (bis(diethyldithiocarbamate)copper) 0.2 uM; 48 h.
Experimental: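 TE10 ESCC cells (1,000/well, 384-well plates) were treated with Selleck bioactive library compounds at 2 uM combined with 0.2 uM CuET (copper diethyldithiocarbamate) for 48 h. Viability was read by CellTiter-Glo and expressed relative to DMSO wells. Two technical replicates (A, B).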

For CC(NC(C)(C)C)C(=O)c1cccc(Cl)c1 (configuration not stated) [Amfebutamone HCl], which relative cell viability is on record?
The relative cell viability was 1.12 ± 0.019.

How did the relative cell viability turn out when CC(C)[C@]12O[C@H]1[C@@H]1O[C@]13[C@]1(O[C@H]1C[C@H]1C4=C(CC[C@@]13C)C(=O)OC4)[C@@H]2O [Triptolide (PG490)] was run?
Its relative cell viability is 0.773 ± 0.019.

How did the relative cell viability turn out when CC(C)(C)c1cc(C=C(C#N)C#N)cc(Br)c1O was run?
Its relative cell viability is 0.508 ± 0.18.

O=C1CC[C@@]2(O)[C@H]3Cc4ccc(O)c5c4[C@@]2(CCN3CC2CC2)[C@H]1O5 [Naltrexone HCl] was tested. Which relative cell viability did it give?
Its relative cell viability is 1.018 ± 0.0067.

For Cn1c(CCCC(=O)O)nc2cc(N(CCCl)CCCl)ccc21 [Bendamustine HCl], which relative cell viability is on record?
Its relative cell viability is 1.14 ± 0.11.

With N[C@@H]1C[C@H]1c1ccccc1 [Tranylcypromine (2-PCPA) HCl] as the molecule, how does the relative cell viability read?
Its relative cell viability is 1.11 ± 0.084.

How did the relative cell viability turn out when CN(C)CCc1ccc(O)cc1 [Hordenine] was run?
The relative cell viability was 1.1 ± 0.053.

With C/C(=C\c1csc(C)n1)[C@@H]1C[C@@H]2O[C@@H]2CCC[C@H](C)[C@H](O)[C@@H](C)C(=O)C(C)(C)[C@@H](O)CC(=O)O1 [Epothilone A] as the molecule, how does the relative cell viability read?
Its relative cell viability is 0.882 ± 0.11.

For COc1ccc(N(C(=O)Oc2c(C)cccc2C)c2ccnc(Nc3ccc(N4CCN(C)CC4)cc3)n2)c(OC)c1, which relative cell viability is on record?
Its relative cell viability is 1.44 ± 0.13.

How did the relative cell viability turn out when COC1=C[C@@H]2[C@@H]3Cc4ccc(OC)c(O)c4[C@]2(CCN3C)CC1=O [Sinomenine] was run?
The relative cell viability was 1.06 ± 0.09.

For O=[N+]([O-])C=Cc1ccc2c(c1)OCO2 [MNS (3,4-Methylenedioxy-β-nitrostyrene, MDBN)], which relative cell viability is on record?
Its relative cell viability is 0.293 ± 0.022.

For CN1[C@@H]2C[C@@H](OC(=O)[C@H](CO)c3ccccc3)C[C@H]1[C@@H]1O[C@@H]12 [Scopolamine HBr], which relative cell viability is on record?
The relative cell viability was 1.031 ± 0.0073.

CCOC(=O)c1cncn1[C@H](C)c1ccccc1 [Etomidate] was tested. Which relative cell viability did it give?
The relative cell viability was 1.1 ± 0.018.

For CCN1CCN(C(=O)Cc2ccc(Nc3ncc(F)c(Nc4ccc(C(=O)Nc5ccccc5Cl)cc4)n3)cc2)CC1 [Aurora A Inhibitor I], which relative cell viability is on record?
The relative cell viability was 0.182 ± 0.01.

For CN1CCc2cc3c(cc2C1C1OC(=O)c2c1ccc1c2OCO1)OCO3 (single isomer, unassigned; (+)) [(+)-Bicuculline], which relative cell viability is on record?
Its relative cell viability is 1.24 ± 0.2.

For CC(O)(CS(=O)(=O)c1ccc(F)cc1)C(=O)Nc1ccc(C#N)c(C(F)(F)F)c1 (configuration not stated) [Bicalutamide], which relative cell viability is on record?
Its relative cell viability is 1.14 ± 0.015.

How did the relative cell viability turn out when O=c1cccc2n1C[C@@H]1CNC[C@H]2C1 [Cytisine] was run?
Its relative cell viability is 1.07 ± 0.033.

With O=C(O)c1nn(Cc2ccc(Cl)cc2Cl)c2ccccc12 [Lonidamine] as the molecule, how does the relative cell viability read?
The relative cell viability was 1.07 ± 0.016.

Cc1cc(C(C#N)c2ccc(Cl)cc2)c(Cl)cc1NC(=O)c1cc(I)cc(I)c1O (configuration not stated) [Closantel] was tested. Which relative cell viability did it give?
The relative cell viability was 1.17 ± 0.069.

With CC(C)(C)c1cc(C=C(C#N)C#N)cc(C(C)(C)C)c1O [Tyrphostin 9] as the molecule, how does the relative cell viability read?
The relative cell viability was 0.424 ± 0.074.

With c1ccc([C@@H]2C[C@H]2NC2CCNCC2)cc1 as the molecule, how does the relative cell viability read?
Its relative cell viability is 1.14 ± 0.036.

How did the relative cell viability turn out when C[C@]12CC[C@H](O)CC1=CC[C@@H]1[C@@H]2CC[C@]2(C)C(=O)CC[C@@H]12 [Dehydroepiandrosterone (DHEA)] was run?
The relative cell viability was 1.08 ± 0.028.

Which relative cell viability does the source give for CC(C)OC(=O)[C@H](C)N[P@](=O)(CO[C@H](C)Cn1cnc2c(N)ncnc21)Oc1ccccc1 [Tenofovir Alafenamide (GS-7340)] here?
The relative cell viability was 1.17 ± 0.021.

How did the relative cell viability turn out when O=[N+]([O-])c1ncc[nH]1 [Azomycin] was run?
The relative cell viability was 1.09 ± 0.03.

With CC[C@H](C)[C@@H]([C@@H](CC(=O)N1CCC[C@H]1[C@H](OC)[C@@H](C)C(=O)N[C@H](C)[C@@H](O)c1ccccc1)OC)N(C)C(=O)[C@@H](NC(=O)[C@@H](NC)C(C)C)C(C)C [Monomethyl auristatin E (MMAE)] as the molecule, how does the relative cell viability read?
Its relative cell viability is 0.681 ± 0.035.

O=C(O)CNC(=O)c1c(O)c2ccccc2n(Cc2ccccc2)c1=O was tested. Which relative cell viability did it give?
Its relative cell viability is 1.07 ± 0.069.

For C[N+](C)(C)CCCCCCCCCC[N+](C)(C)C [Decamethonium Bromide], which relative cell viability is on record?
The relative cell viability was 0.999 ± 0.037.

Which relative cell viability does the source give for CCNC(=O)C[C@@H]1N=C(c2ccc(Cl)cc2)c2cc(OC)ccc2-n2c(C)nnc21 here?
Its relative cell viability is 0.844 ± 0.12.

With CC(C)=CCC[C@]1(C)C=Cc2c(O)c3c(c(CC=C(C)C)c2O1)O[C@]12C(=C[C@@H]4C[C@H]1C(C)(C)O[C@@]2(C/C=C(/C)C(=O)O)C4=O)C3=O [Gambogic Acid] as the molecule, how does the relative cell viability read?
Its relative cell viability is 0.2853 ± 0.00092.

Which relative cell viability does the source give for CN1c2ccccc2C(NCCCCCCC(=O)O)c2ccc(Cl)cc2S1(=O)=O (configuration not stated) [Tianeptine sodium] here?
The relative cell viability was 1.21 ± 0.12.

Which relative cell viability does the source give for C[C@H]1CCC/C=C/[C@@H]2C[C@H](O)C[C@H]2[C@H](O)/C=C/C(=O)O1 [Brefeldin A] here?
Its relative cell viability is 0.437 ± 0.028.

How did the relative cell viability turn out when CC1=C(O)C(=O)C=C2C1=CC=C1[C@@]2(C)CC[C@@]2(C)[C@@H]3C[C@](C)(C(=O)O)CC[C@]3(C)CC[C@]12C [Celastrol] was run?
The relative cell viability was 0.154 ± 0.0064.

For COc1cc(-n2c(=S)[nH]c3ccccc3c2=O)c(Cl)cc1Cl [Mdivi-1], which relative cell viability is on record?
Its relative cell viability is 1.28 ± 0.031.

Which relative cell viability does the source give for CCCN1C[C@H](CSC)C[C@@H]2c3cccc4[nH]cc(c34)C[C@H]21 [Pergolide mesylate] here?
The relative cell viability was 1.36 ± 0.33.

How did the relative cell viability turn out when CC(=O)Nc1ccc(Cc2ccc(NC(C)=O)cc2)cc1 was run?
Its relative cell viability is 1.23 ± 0.095.

With COc1ccc(C(=O)N2CCCC2=O)cc1 [Aniracetam] as the molecule, how does the relative cell viability read?
Its relative cell viability is 1.18 ± 0.079.

With O=C(O[C@H]1C[C@H]2CC[C@@H](C1)[N+]21CCCC1)C(O)(c1ccccc1)c1ccccc1 [Trospium chloride] as the molecule, how does the relative cell viability read?
The relative cell viability was 1.14 ± 0.085.

With O=C(O)CCCc1ccc(N(CCCl)CCCl)cc1 [Chloroambucil] as the molecule, how does the relative cell viability read?
The relative cell viability was 1.2 ± 0.13.

CC[C@@H](C(N)=O)N1CCCC1=O [Levetiracetam] was tested. Which relative cell viability did it give?
Its relative cell viability is 1.18 ± 0.032.

With CN(C)Cc1c[nH]c2ccccc12 [Gramine] as the molecule, how does the relative cell viability read?
Its relative cell viability is 1.257 ± 0.0067.

For NC(=O)CN1CC(O)CC1=O (configuration not stated) [Oxiracetam], which relative cell viability is on record?
Its relative cell viability is 1.14 ± 0.037.

Which relative cell viability does the source give for CN1CCC(c2c[nH]c3ccc(O)cc23)CC1 here?
The relative cell viability was 1.23 ± 0.086.

Which relative cell viability does the source give for COc1cc([C@@H]2c3cc4c(cc3[C@H](O)[C@H]3COC(=O)[C@@H]23)OCO4)cc(OC)c1OC [Picropodophyllin (PPP)] here?
Its relative cell viability is 0.811 ± 0.025.

How did the relative cell viability turn out when C/C(=C\c1csc(C)n1)[C@@H]1C[C@@H]2O[C@]2(C)CCC[C@H](C)[C@H](O)[C@@H](C)C(=O)C(C)(C)[C@@H](O)CC(=O)O1 [Epothilone B (EPO906, Patupilone)] was run?
Its relative cell viability is 1.05 ± 0.027.

Which relative cell viability does the source give for C=CC[C@]1(O)CC[C@H]2[C@@H]3CCC4=CC(=O)CCC4=C3C=C[C@@]21C [Altrenogest] here?
The relative cell viability was 1.01 ± 0.15.

For C=C[C@H]1CN2CC[C@H]1C[C@H]2[C@H](O)c1ccnc2ccccc12 [Cinchonidine], which relative cell viability is on record?
The relative cell viability was 1.03 ± 0.057.

How did the relative cell viability turn out when Cc1cccc(C(C)c2c[nH]cn2)c1C (configuration not stated) [Medetomidine HCl] was run?
Its relative cell viability is 1.11 ± 0.056.
